The target in assay [1] is T1, B7-H4 protein on MX-1 cells (Homo sapiens, UniProt Q7Z7D3).
T1 construct: The cultured MX-1 cells expressing human B7-H4 (CLS Cell Lines Service GmbH #300296) were collected; host or cells: MX-1 cells
T1 sequence (Q7Z7D3 25-282): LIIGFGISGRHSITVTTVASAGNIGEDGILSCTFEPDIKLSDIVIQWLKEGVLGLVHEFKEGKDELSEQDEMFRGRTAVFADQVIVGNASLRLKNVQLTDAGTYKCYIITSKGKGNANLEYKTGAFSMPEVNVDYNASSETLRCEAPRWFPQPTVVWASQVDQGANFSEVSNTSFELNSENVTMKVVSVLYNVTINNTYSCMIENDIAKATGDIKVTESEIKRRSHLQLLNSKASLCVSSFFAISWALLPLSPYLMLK
The experiment in a line: Endocytosis of anti-B7-H4 antibodies in MX-1 cells. Format: cell-based. To be noted: antibody 20 μg/ml; for Humanized antibody-mediated endocytosis efficiency of B7-H4 protein, 0.5 hour (%) / Humanized antibody-mediated endocytosis efficiency of B7-H4 protein, 2 hours (%): 37° C. The protocol: In order to test whether the antibodies of the present invention could be endocytosed along with human B7-H4 after binding to B7-H4, MX-1 cells were used for evaluation. MX-1 cells were trypsinized (first washed with PBS once at 37° C. for about 2 min), collected and resuspended in pre-chilled FACS buffer. The cell concentration was adjusted to 1×10^6 cells/mL. 1 mL of the cell suspension was added to an EP tube, centrifuged at 1500 rpm for 5 minutes, and the supernatant was removed. 1 mL of the prepared antibody to be tested was added to resuspend the cells, and the final concentration of the antibody was 20 μg/ml. The cells were incubated on a 4° C. shaker for 1 hour, centrifuged, and the supernatant was discarded (4° C., 1500 rpmx5 min). The cells were washed twice with FACS buffer and the supernatant was removed. 100 μL of fluorescent secondary antibody working solution was added to each tube to resuspend the cells. The cells were incubated on a 4° C. shaker for 30 min, centrifuged, and the supernatant was discarded (4° C., 1500 rpmx5 min). The cells were washed twice with FACS buffer and the supernatant was removed. 1.0 mL of pre-warmed MX-1 cell complete medium was added to each tube to resuspend the cells and mixed. The cell suspension was aliquoted into 4 tubes at 200 μL per tube, which were respectively the 0 min group, blank group, 30 min group and 2 h group. The 0 min and blank groups were placed on ice, while the other groups were placed in a 37° C. incubator for endocytosis for 30 min and 2 h respectively. At the corresponding time point, the EP tube was taken out and placed on ice to pre-chill for 5 min. All treatment groups were centrifuged and the supernatant was discarded (4° C., 1500 rpmx5 min). The cells were washed once with FACS buffer and the supernatant was removed. 250 μL strip buffer was added to EP tubes of all treatment groups except the 0 min group and incubated for 8 min at room temperature. The cells were centrifuged and the supernatant was discraded (4° C., 1500 rpm×5 min). The cells were washed twice with FACS buffer and the supernatant was removed. All treatment groups were added with 100 μL immunostaining fixative, placed at 4° C. for more than 30 min, and detected by the flow cytometer DxFlex. Endocytosis percentage of B7-H4 antibody (%)=(average fluorescence intensity value at each time point−average fluorescence intensity value of the blank group)/(average fluorescence intensity value at zero point−average fluorescence intensity value of the blank group)×100%.

The test system of assay [2] is MX-1 cells expressing human B7-H4. The assay can be described thus: In vitro cell binding experiment (FACS) with MX-1 cells. To be noted: flow cytometry. As to the method:
The cultured MX-1 cells expressing human B7-H4 (CLS Cell Lines Service GmbH #300296) were collected, the cell density was adjusted with PBS at pH 7.4, and the cells were plated on a 96-well plate with V-shaped bottom at 1×10^5 cells per well. The plate was centrifuged at 2000 rpm for 5 minutes and the supernatant was removed. 100 μl of the gradient diluted humanized antibody solution (diluted with PBS containing 0.5% BSA, starting from 1 μM, a 3-fold gradient of 10 doses) was added to each well, mixed well and incubated at 4° C. on a shaker for 1 hour. The plate was centrifuged at 2000 rpm for 5 minutes and the supernatant was removed. The cells were washed twice with PBS. 100 μl of FITC-labeled goat anti-human secondary antibody (Abeam, cat #ab97224) diluted with 0.5% BSA in PBS was added to each well, mixed well and incubated for 30 minutes at 4° C. on a shaker. The plate was centrifuged at 2000 rpm for 5 minutes and the supernatant was removed. The cells were washed twice with PBS and then resuspended in PBS. The signal was detected by using a flow cytometer (BECKMAN COULTER, model DxFLEX), and a concentration curve was plotted for result analysis.
A general note: A flow cytometer gives signals particle by particle.

Assay [3] addresses T2, human huB7-H4-His protein (Homo sapiens, UniProt Q7Z7D3).
T2 construct: made in house; host or cells: 293T cells (pTT5 vector)
T2 sequence (Q7Z7D3 with tags, fused parts or gaps): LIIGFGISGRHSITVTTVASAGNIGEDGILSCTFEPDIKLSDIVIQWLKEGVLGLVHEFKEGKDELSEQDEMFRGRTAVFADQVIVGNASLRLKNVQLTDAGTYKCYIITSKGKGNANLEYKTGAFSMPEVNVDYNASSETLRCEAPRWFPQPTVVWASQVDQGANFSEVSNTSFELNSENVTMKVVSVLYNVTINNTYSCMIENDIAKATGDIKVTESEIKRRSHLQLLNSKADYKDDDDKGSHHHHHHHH
The assay can be described thus: Affinity kinetics experiment (Biacore T200). Format: binding. Particulars: for Affinity to the human B7-H4 antigen protein (in words): Biacore; for Dissociation rate kd: antibody on CM5 chip, 50 nM huB7-H4-His, 1:1 (Langmuir) model. The protocol: The Biacore method is a generally acknowledged method for objectively detecting the affinity and kinetics between proteins. The affinity and binding kinetics of the antibodies to be tested of the present invention were analyzed by Biacore T200 (GE). The anti-B7-H4 antibodies to be tested of the present invention were covalently linked to CM5 (GE) chips by using the kit provided by Biacore and the NHS standard amino coupling method. Then 50 nM of human huB7-H4-His protein diluted in the same buffer was injected at a flow rate of 10 uL/min. After the injection, the samples were all regenerated with the regeneration reagent in the kit. The antigen-antibody binding kinetics was tracked for 3 minutes and the dissociation kinetics was tracked for 10 minutes. The obtained data were analyzed with a 1:1 (Langmuir) binding model by using BIAevaluation software of GE.
For orientation: Surface plasmon resonance follows binding to a sensor surface in real time, without labels.

B1: hu2F7: humanized anti-B7-H4 antibody, heavy chain SEQ ID NO: 21, light chain SEQ ID NO: 22 (antibody)
heavy: EVQLVESGGGLVQPGGSLRLSCAASGFTFSNYYMSWVRQAPGKGLEWVAYVSSGGGSTYYSDSVKGRFTISRDNAKNTLYLQMSSLRAEDTAVYYCTRESYSQGNYFDYWGQGTTVTVSS[no letters for human IgG1 constant region]
light: EIVMTQSPATLSLSPGERATLSCRASQSISDYLHWYQQKPGQSPRLLIKFASQSISGIPARFSGSGSGTDFTLTISSLEPEDFAVYYCQNGHSFSLTFGQGTKLEIKRTVAAPSVFIFPPSDEQLKSGTASVVCLLNNFYPREAKVQWKVDNALQSGNSQESVTEQDSKDSTYSLSSTLTLSKADYEKHKVYACEVTHQGLSSPVTKSFNRGEC
modifications: A synthetic hu2F7 HC; A synthetic hu2F7 LC
Turning to B1, in assay [1], the “Humanized antibody-mediated endocytosis efficiency of B7-H4 protein, 0 hour (%)” value was determined as 0%; the “Humanized antibody-mediated endocytosis efficiency of B7-H4 protein, 0.5 hour (%)” value is given as 13.9%; the “Humanized antibody-mediated endocytosis efficiency of B7-H4 protein, 2 hours (%)” value was 25.9%. Also, the “Binding to MX-1 cells with high expression of B7-H4 (in words)” value in assay [2] is “bind positively”. In assay [3], the “Affinity to the human B7-H4 antigen protein (in words)” value (shortened to “Affinity”) is listed as “strong affinity” and the “Dissociation rate kd” value amounted to 0.000249 s⁻¹.

B2: hu2F8: humanized anti-B7-H4 antibody, heavy chain SEQ ID NO: 39, light chain SEQ ID NO: 40 (antibody)
heavy: EVQLVQSGAEVKKPGASVKVSCKASGYTFTSSWMNWVRQAPGQRLEWMGGIYPNRGNIEYNEKFKGRVTLTVDTSASTAYMELSSLRSEDTAVYYCARDSRFSYWGQGTLVTVSS[no letters for human IgG1 constant region]
light: DIQMTQSPSSLSASVGDRVTITCKASQDVRTAVAWYQQKPGKAPKLLISSTSYRYTGVPSRFSGSGSGTDFTFTISSLQPEDIATYYCQQHYSTPLTFGGGTKVEIKRTVAAPSVFIFPPSDEQLKSGTASVVCLLNNFYPREAKVQWKVDNALQSGNSQESVTEQDSKDSTYSLSSTLTLSKADYEKHKVYACEVTHQGLSSPVTKSFNRGEC
modifications: A synthetic hu2F8 HC; A synthetic hu2F8 LC
As for B2, in assay [3], the “Affinity” value is on record as “strong affinity” and the “Dissociation rate kd” value stood at 0.000112 s⁻¹.

B3: hu2G6: humanized anti-B7-H4 antibody, heavy chain SEQ ID NO: 19, light chain SEQ ID NO: 20 (antibody)
heavy: EVQLLESGGGLVQPGGSLRLSCAASGFTFSRYGMSWVRQAPGKGLEWVSGINGGGSYTYYLDTVKGRFTISRDNARNTLYLQMSSLRAEDTAVYYCVSQGSNYYFDYWGQGTLVTVSS[no letters for human IgG1 constant region]
light: DIRMTQSPSSLSASVGDRVTITCHASQGISSNIGWLQQKPGKAPKALIYHGTNLEDGVPSRFSGSGSGADYTLTISSLQPEDFATYYCVQYAQFPYTFGGGTKVEIKRTVAAPSVFIFPPSDEQLKSGTASVVCLLNNFYPREAKVQWKVDNALQSGNSQESVTEQDSKDSTYSLSSTLTLSKADYEKHKVYACEVTHQGLSSPVTKSFNRGEC
modifications: A synthetic hu2G6 HC; A synthetic hu2G6 LC
For the molecule B3, in assay [1], the “Humanized antibody-mediated endocytosis efficiency of B7-H4 protein, 0 hour (%)” value amounted to 0%; the “Humanized antibody-mediated endocytosis efficiency of B7-H4 protein, 0.5 hour (%)” value is 18.6%; the “Humanized antibody-mediated endocytosis efficiency of B7-H4 protein, 2 hours (%)” value is recorded as 28.7%. Besides, in assay [2], the “Binding to MX-1 cells with high expression of B7-H4 (in words)” value was “bind positively”. In assay [3], the “Affinity” value is given as “strong affinity” and the “Dissociation rate kd” value stood at 1e-05 s⁻¹.

Values taken from US20230072897A1, “ANTI-B7-H4 ANTIBODY-DRUG CONJUGATE AND MEDICINAL USE THEREOF” (SHANGHAI HANSOH BIOMEDICAL CO., LTD., priority 2019, published 2023).
